# Laboratory results taken from publication PMC4336329 (PLoS ONE, 2015).
# About 2,200 (0.71%) of roughly 310,000 compounds showed an effect of 50% or more. The effect is printed as a negative number. The list shows a part of the results.
# Target: human ether-à-go-go-related gene (hERG) potassium channel (human, UniProt Q12809)
# Experiment: primary screen, population patch clamp on CHO cells stably expressing hERG
# Sequence of human ether-à-go-go-related gene (hERG) potassium channel (Q12809 whole entry, looked up): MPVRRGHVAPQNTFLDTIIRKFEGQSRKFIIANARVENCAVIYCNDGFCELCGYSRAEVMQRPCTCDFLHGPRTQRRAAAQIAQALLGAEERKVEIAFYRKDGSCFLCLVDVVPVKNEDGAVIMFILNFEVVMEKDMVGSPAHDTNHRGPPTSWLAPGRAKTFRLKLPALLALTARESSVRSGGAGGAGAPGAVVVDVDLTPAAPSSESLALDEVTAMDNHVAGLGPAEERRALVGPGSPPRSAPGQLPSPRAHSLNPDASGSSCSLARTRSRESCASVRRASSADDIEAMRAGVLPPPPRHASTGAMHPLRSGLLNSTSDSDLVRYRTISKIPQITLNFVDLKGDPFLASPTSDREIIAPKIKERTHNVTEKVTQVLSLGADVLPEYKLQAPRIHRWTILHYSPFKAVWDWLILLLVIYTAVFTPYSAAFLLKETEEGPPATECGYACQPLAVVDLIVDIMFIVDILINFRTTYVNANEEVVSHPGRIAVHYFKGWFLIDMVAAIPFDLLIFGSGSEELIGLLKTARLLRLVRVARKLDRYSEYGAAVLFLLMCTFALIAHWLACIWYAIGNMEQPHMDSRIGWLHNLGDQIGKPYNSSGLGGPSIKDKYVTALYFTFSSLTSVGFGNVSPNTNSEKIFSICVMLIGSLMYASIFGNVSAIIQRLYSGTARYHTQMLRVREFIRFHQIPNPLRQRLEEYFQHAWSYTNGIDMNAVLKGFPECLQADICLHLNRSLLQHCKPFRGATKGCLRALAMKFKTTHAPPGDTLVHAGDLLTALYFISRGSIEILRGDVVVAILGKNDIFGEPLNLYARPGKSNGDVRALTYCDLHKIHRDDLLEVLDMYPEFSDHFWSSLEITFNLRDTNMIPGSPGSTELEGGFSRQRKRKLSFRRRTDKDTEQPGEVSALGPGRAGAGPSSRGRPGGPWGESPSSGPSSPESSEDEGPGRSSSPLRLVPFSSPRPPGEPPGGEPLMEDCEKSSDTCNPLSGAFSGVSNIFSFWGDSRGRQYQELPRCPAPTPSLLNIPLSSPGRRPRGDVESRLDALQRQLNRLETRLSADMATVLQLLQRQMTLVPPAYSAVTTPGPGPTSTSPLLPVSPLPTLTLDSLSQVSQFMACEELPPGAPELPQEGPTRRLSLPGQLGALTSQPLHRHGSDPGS
row,Compound,"hERG current change (%, negative = inhibition) at 1uM [%]"
1,CC(C)(C)c1ccc(OCCC(=O)OCC(=O)NCc2ccccc2)cc1,8.28
2,CCN1/C(=C\C(C)=O)Sc2ccc(OC)cc21,12.5
3,O=C(CCC(=O)c1ccc(Br)cc1)Nc1ccc(F)cc1,19.3
4,O=C(OCc1cccc([N+](=O)[O-])c1)c1ccc[nH]c1=O,17.5
5,Cc1cccc(-c2cc3nc4c(c(NCc5ccco5)n3n2)CCCC4)c1,-25.6
6,Cc1nc(SCC(=O)N2c3ccccc3Sc3ccccc32)n[nH]1,10.8
7,O=C(C[n+]1cc(-c2ccc(Br)cc2)n2c1CCCCC2)c1ccccc1.[Br-],9.14
8,O=S(=O)(NC1CCCCCCC1)OCC(Cl)(Cl)Cl,2.81
9,Cc1n[nH]c(C)c1S(=O)(=O)N1CCN(C(=O)c2ccco2)CC1,8
10,O=C(NCCc1ccccc1)C1CCC(=O)N(Cc2cccc(C(F)(F)F)c2)C1 (stereo not drawn),-8.75
11,O=C(c1cc(-c2cccc(O)c2)on1)N1CCCCC1,8.83
12,Cc1nc(NC(=O)/C=C/c2ccco2)sc1C,3.02
13,Cc1ccc(NC(=O)COc2ccccc2C(=O)NCCc2ccccc2)cc1,7.45
14,CC1(C)CC(=O)c2sc(NS(C)(=O)=O)nc2C1,-4.76
15,CCOCCCNC(=O)C(c1ccc(Cl)cc1)N(Cc1cccs1)C(=O)CNC(C)=O (stereo not drawn),17.5
16,CCN(C)c1ccc(/C=N\n2nnnc2N)cc1,13.2
17,CCC(C)NC(=O)Nc1ccccc1C (stereo not drawn),19.7
18,CCOC(=O)N1CCC(NC(=O)C2CCCN(C(=O)N3CCOc4ccccc43)C2)CC1 (stereo not drawn),11.2
19,CCOC(=O)c1c(NC(=O)COC(=O)Cc2c[nH]c3ccccc23)sc(C(=O)N(C)C)c1C,-6.05
20,Cc1ccc(NC(=O)CN2C(=O)NC(C)(C3CC3)C2=O)c([N+](=O)[O-])c1 (stereo not drawn),-2.74
21,COc1ccccc1NC(=S)N1CCN(C/C=C/c2ccccc2)CC1,7.29
22,COCCn1c(SCC(=O)Nc2cccc(S(N)(=O)=O)c2)nc2cc(Cl)ccc2c1=O,-0.843
23,CCOCCCN1C(=O)CN(C2CCCCC2)C(=O)C1c1ccc(OC)c(OC)c1 (stereo not drawn),10.8

row,Compound,"hERG current change (%, negative = inhibition) at 1uM [%]"
1,CNc1nc(-c2ccc3c(c2)CCN3C(=O)c2cccc(F)c2)cs1,7.55
2,Cc1ccc(CN2C(=O)CCC2C(=O)NCCN(CC(C)C)CC(C)C)cc1 (stereo not drawn),7.6
3,CC(C)CC(=O)NC(Oc1ccc(Cl)cc1)C(Cl)(Cl)Cl (stereo not drawn),10.1
4,C/C(=N\NC(=O)c1c(Br)c(C)nn1C)c1cccc(NC(=O)C2CCC2)c1,-1.39
5,O=C(Nc1ccc(Cl)c(Cl)c1)Nc1ccccc1O,9.91
6,CCN(CC)C(=O)CN1C(=O)C(=O)c2ccccc21,19.7
7,CC1(C)Cc2c(sc(NC(=O)C(=O)NCCCN3CCOCC3)c2C(N)=O)CO1,8.43
8,O=C(c1ccccc1)c1nccn1-c1ccc(Cl)nn1,11.4
9,CC1=C/C(=C/N(C)C)C(=O)O1,15
10,CCn1c(=O)cc(SCC(=O)NCc2cccnc2)c2ccccc21,13.3
11,COc1cc(C)c(COc2ncnc3ccccc23)cc1OC,3.66
12,O=C1[C@@H]2C(c3cccnc3)=NO[C@@H]2C(=O)N1c1ccc(Cl)cc1Cl,11.2
13,CCOC(=O)CC1C(=O)NCCN1C(=O)c1cc2c(=O)n3cccc(C)c3nc2s1 (stereo not drawn),13.2
14,CC(C)C(=O)Nc1nc2cc3c(cc2s1)OCCO3,7.01
15,O=C(/C=C/c1ccc2c(c1)OCCO2)c1ccc(O)cc1,4.76
16,Cc1cccc(NC(=O)c2nc[nH]c2C(=O)Nc2cccc(C)c2)c1,15.9
17,CCNc1nnc(-c2ccncc2)s1,11.1
18,COC(=O)c1ccc(C(=O)OC)c(NC(=O)COC(=O)CCOc2ccc(C)cc2)c1,13.2
19,COc1cccc(CNC(=O)C(C)n2nc(C)n3c(cc4occc43)c2=O)c1 (stereo not drawn),4.31
20,Cl.Cn1nnc(C(O)CNCc2ccc(Cl)cc2)n1 (stereo not drawn),8.91
21,CC1CC(C)CN(C(=O)CSc2nc(N)cc(=O)[nH]2)C1 (stereo not drawn),-1.76
22,Cc1ccc(-c2nnc(OCc3cccnc3)c3ccccc23)cc1,-7.6
23,CC1CN(S(=O)(=O)c2ccc(NC(=O)CCCN3C(=O)c4ccccc4C3=O)cc2)CC(C)O1 (stereo not drawn),-0.596

row,Compound,"hERG current change (%, negative = inhibition) at 1uM [%]"
1,CCc1ccc(NC(=O)N(C2CCCCC2)C(C)c2cccnc2)cc1 (stereo not drawn),-0.814
2,O=C(NCCC1CCCCN1S(=O)(=O)c1ccccc1)C(=O)Nc1ccc(F)cc1F (stereo not drawn),7.89
3,CCN(CC)CCNC(C(=O)Nc1ccc([N+](=O)[O-])cc1Br)c1ccccc1 (stereo not drawn),-86.5
4,CCc1ccc(NC(=O)CNS(=O)(=O)c2c(C)noc2C)cc1,10.6
5,Cc1c(OCC(=O)OC(C)(C)C)ccc2c3c(c(=O)oc12)CCC3,14.4
6,COc1ccc(-c2cn3c(C)c(C(=O)N4CCN(c5ccc(F)cc5)CC4)sc3n2)cc1,3.41
7,CCCC1c2ccc(C)n2CCN1C(=O)Nc1ccc(F)cc1 (stereo not drawn),8.71
8,COc1ccc(OC)c2c1C(=O)C(Cl)=C(Cl)C2=O,12.7
9,Cc1cc(C)c(C)c(S(=O)(=O)N2C(=S)NC(=O)C2C(C)C)c1C (stereo not drawn),5.33
10,CC1(C)CC(N2CCC(=O)N(C3CC(C)(C)NC(C)(C)C3)C2)CC(C)(C)N1,-8.68
11,CCN(C(=O)c1cc2c(=O)n3cccc(C)c3nc2n1CCCOC)C1CCCCC1,4.12
12,Cc1nn(-c2ccccc2)nc1C(=O)c1c(C)[nH]n(-c2ccccc2)c1=O,3.21
13,O=C(N/N=C/c1ccc(OC(=O)c2ccccc2Cl)cc1)c1cc(O)cc(O)c1,-16.1
14,CC(=O)N1CCN(S(=O)(=O)c2ccc3c(c2)OCCO3)CC1,10.3
15,Cc1nc2ccccn2c1C(=O)NNS(=O)(=O)c1ccc(C(C)(C)C)cc1,10.9
16,C#CCOc1c(Cl)cc(C2C3=C(CCCC3=O)N(CC(=O)O)C3=C2C(=O)CCC3)cc1OC,1.11
17,CCOC(=O)c1ccc(NC(=O)c2ccc(NC(=O)c3ccccc3)cc2)cc1,7.31
18,CCC(CC)=NNc1ccc([N+](=O)[O-])cc1[N+](=O)[O-],9.64
19,COc1cccc(C(=O)C2CCCN(C(=O)c3ccc(C#CC(C)(C)O)cc3)C2)c1 (stereo not drawn),6.92
20,CN(c1ccccc1C(=O)N1CCOCC1)S(C)(=O)=O,12.9
21,CC(=O)Nc1ccc(C(=O)CSc2nc3ccccc3n2CC(=O)N2CCCC2)cc1,5.57
22,NC(=O)c1ccccc1NC(=O)c1ccccc1S(=O)(=O)c1ccccc1[N+](=O)[O-],11
23,c1nc(N2CCCCC2)c2[nH]cnc2n1,8.35

row,Compound,"hERG current change (%, negative = inhibition) at 1uM [%]"
1,CCc1ccc2oc(=O)cc(CN3CCN(Cc4ccccc4)CC3)c2c1,-17.6
2,CCCCCc1ccc(C2=NNC(=O)CC2)cc1,13.7
3,CC(=O)c1sc(NC(C)c2ccccc2)nc1C (stereo not drawn),23.1
4,CC(C)C1NCCc2c1sc1ccccc21 (stereo not drawn),7.83
5,Cc1c(C(=O)N(C)C2CC(C)(C)NC(C)(C)C2)oc2c(F)cccc12,7.59
6,Cc1ccc(S(=O)(=O)NC(C)C(=O)Nc2ccc3c(c2)OCO3)cc1 (stereo not drawn),16.5
7,CCOc1cc(N2CCOCC2)c(OCC)cc1NC(=O)c1nc2nc(C)cc(C)n2n1,15.5
8,CSCCC(NS(=O)(=O)/C=C/c1ccccc1)C(=O)NCCc1ccc(S(N)(=O)=O)cc1 (stereo not drawn),2.03
9,CC1=NNC(=O)/C1=C\c1cn(-c2ccccc2)nc1-c1cccs1,9.8
10,COc1cccc(NC(=O)COC(=O)CCCc2c[nH]c3ccccc23)c1,8.32
11,COC(=O)c1ccc(C(c2c(C)[nH][nH]c2=O)c2c(C)[nH][nH]c2=O)cc1,14.5
12,Cc1ccc(NC(=O)CC2C(=O)NCCN2C(=O)c2ccc(F)cc2)cc1 (stereo not drawn),-11.8
13,Cc1ccc(-c2nc(C(Cl)Cl)c3ccccc3n2)cc1,0.646
14,Clc1ccccc1-c1nnc(-c2ccccc2Cl)o1,4.59
15,Cc1oc(-c2ccc(Cl)cc2)cc1C(=O)O,17.6
16,CS(=O)(=O)N(CC(=O)N1CCc2ccccc2C1)c1cccc(F)c1,-2.4
17,COc1ccc(C)cc1NC(=S)NC12CN3CN(CN(C3)C1)C2,16
18,N=C1/C(=C/c2cccn2Cc2ccc(Cl)cc2)C(=O)N=C2SC=CN12,6.96
19,O=c1nc(NCc2ccccc2Cl)cn[nH]1,1.65
20,O=C(Cn1ncc2c([nH]c3ccccc32)c1=O)NCC1CCN(Cc2ccccc2F)CC1,-18.2
21,COc1ccc(/C=N/N=C2/NC(=O)C(CC(=O)O)S2)cc1OCc1ccccc1Cl (stereo not drawn),6.29
